Test results as given in paper PMC6919601, “Identification of Plasmodium dipeptidyl aminopeptidase allosteric inhibitors by high throughput screening” (PLoS ONE, 2019).
The campaign covered roughly 110,000 compounds. About 230 (0.21%) showed an effect of 50% or more. The list shows a part of the results.

Molecular target: DPAP1 (Plasmodium falciparum, UniProt Q8IIJ9)
Experiment: primary screen, percent inhibition; read by cleavage of a fluorogenic dipeptide substrate; higher = more effect of the substance
Design: species or system P. falciparum D10 trophozoite lysates; single well
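Also: 30 min substrate incubation versus DMSO and 10 µM JCP410 controls.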

Sequence of DPAP1 (Q8IIJ9 whole entry, looked up): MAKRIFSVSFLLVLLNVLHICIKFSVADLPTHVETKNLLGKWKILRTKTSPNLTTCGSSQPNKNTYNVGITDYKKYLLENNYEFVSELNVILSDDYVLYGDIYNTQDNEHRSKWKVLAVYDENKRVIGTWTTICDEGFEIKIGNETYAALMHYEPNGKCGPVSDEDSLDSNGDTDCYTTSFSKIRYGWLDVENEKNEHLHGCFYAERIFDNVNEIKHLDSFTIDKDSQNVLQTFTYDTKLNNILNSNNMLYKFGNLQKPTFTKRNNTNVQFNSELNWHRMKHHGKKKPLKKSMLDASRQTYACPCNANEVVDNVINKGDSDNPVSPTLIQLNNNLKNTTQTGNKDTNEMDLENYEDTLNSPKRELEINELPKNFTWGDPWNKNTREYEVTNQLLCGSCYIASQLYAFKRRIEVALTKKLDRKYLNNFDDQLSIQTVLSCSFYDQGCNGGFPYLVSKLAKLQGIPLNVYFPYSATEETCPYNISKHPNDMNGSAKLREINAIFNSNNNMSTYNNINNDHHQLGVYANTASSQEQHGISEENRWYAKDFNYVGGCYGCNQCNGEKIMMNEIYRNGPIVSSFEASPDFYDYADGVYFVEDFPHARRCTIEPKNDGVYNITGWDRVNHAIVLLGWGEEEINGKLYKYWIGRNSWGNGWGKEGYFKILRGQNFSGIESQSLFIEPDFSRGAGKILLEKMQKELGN

| SMILES | % Inhibition @ 10 uM [%] |
| --- | --- |
| Cc1ccc(-c2csc(/C(C#N)=C/c3ccccc3F)n2)c(C)c1 | -5.32 |
| CCC(O)(C#CCN1CCCCC1)CC | 1.13 |
| CCCC1=Nc2ncnn2C(c2cc(OC)ccc2OC)/C1=C(/O)OCC (stereo not shown) | -3.37 |
| COC(=O)C1=C(C)N=C(C)/C(=C(/O)OC)C1c1ccc(Cl)cc1 (stereo not shown) | 1.57 |
| Cc1cc(=O)n(CC(=O)NCCc2ccccc2)c2c1c(C)nn2C | 2.29 |
| COc1cc(C2C3=C(O)CC(C)(C)CC3=NC(C)=C2C(=O)OCc2ccccc2)ccc1O (stereo not shown) | 3 |
| CCOC(=O)c1c(NC(=O)C2CCCCC2C(=O)O)sc(C)c1-c1ccc(F)cc1 (stereo not shown) | 3.94 |
| CCN(CC)c1ccc(NC(=O)c2ccccc2C)c(C)c1 | -1.61 |
| COc1ccc(-c2noc(CC(=O)Nc3ccccn3)n2)cc1 | 0.581 |
| Cn1nc(C(=O)Nc2cccnc2Cl)c2c1-c1ccccc1OC2 | 1.68 |
| COc1ccc(-c2[nH]nc3c2C(c2ccc(N4CCOCC4)cc2)C(C#N)=C(N)O3)cc1 (stereo not shown) | 0.343 |
| O=C(NCCN1CCCCCC1)c1csc2c1CCCC2 | -3.21 |
| CCc1ccc(OCc2ccc(C(=O)Nc3ccon3)cc2)cc1 | -2.9 |
| O=C(Nc1cccnc1)c1nn2c(C(F)(F)F)cc(-c3ccco3)nc2c1Br | -3.09 |
| Cc1cccc(-n2nc3c(c2NC(=O)CC2CCCCC2)CS(=O)(=O)C3)c1C | 6.04 |
| CC1=C(C(=O)Nc2ccc(Br)cn2)C(c2ccccc2)C2=C(O)CCCC2=N1 (stereo not shown) | -8.64 |
| O=C(CNC(=S)N(Cc1ccccc1F)C1CCCCC1)NCc1ccco1 | -5.8 |
| Cn1c(NCc2ccco2)nc2c1c(=O)n(CCc1ccccc1)c(=O)n2C | 1.97 |
| CCC1CCc2c(sc(NC(=O)c3ccncc3)c2C#N)C1 (stereo not shown) | 2.38 |
| Cc1ccc(C(=O)Nc2c(C(=O)N3CCCCCC3)cnn2-c2ccccc2)cc1 | -2.82 |
| CN1CCC(N(C)Cc2coc3ccccc3c2=O)CC1 | -0.127 |
| O=Cc1c[nH]c2ccc(S(=O)(=O)N3CCc4ccccc4C3)cc12 | 2.35 |

| SMILES | % Inhibition @ 10 uM [%] |
| --- | --- |
| CCN(CC)c1ccc(NC(=O)C2CC3CCC2C3)cc1 (stereo not shown) | -0.67 |
| COc1cccc(-c2ccc(C#N)c(SCC(=O)Nc3ccccc3)n2)c1 | 0.726 |
| O=C(CSc1cn(CC(=O)N2CCCCC2)c2ccccc12)N1CCOCC1 | -2.55 |
| Cc1nn(CC(=O)NCCCN2CC(C)CC(C)C2)c(=O)c2cc3sccc3n12 (stereo not shown) | -3.35 |
| Cc1cc(SCC(=O)Nc2nsc(-c3ccccc3)n2)nc2ccccc12 | -3.63 |
| C=CCn1c(SCC(=O)Nc2nonc2C)nnc1-c1cccs1 | 1.76 |
| CCSC1=NSC2=NC(=O)/C(=C\c3ccc(CC)cc3)C(=N)N12 | 1.83 |
| CC(C)(C)OC(=O)N1CCN(C(=O)C(=O)c2c[nH]c3ccccc23)CC1 | -1.11 |
| CC(C)CNc1ncnc2onc(-c3ccc(F)cc3)c12 | -0.495 |
| COc1ccc(-c2noc(CN(C(C)C)S(=O)(=O)c3ccc(F)cc3)n2)cc1 | 1.94 |
| CCO/C(O)=C1\C(C)=NC(=S)NC1c1ccccc1F (stereo not shown) | -9.83 |
| CN(C(=O)c1cc2c(O)nc3ccccc3c2s1)C1CCCCC1 | -4.14 |
| Cc1cc(NC(=O)c2noc3c2CCCC3)nn1Cc1ccc(Cl)cc1 | -1.84 |
| COc1ccc(C(=O)N2CCN(C(=O)c3ccco3)CC2)cc1 | -1.86 |
| COc1ccc(C(=O)N2CCN=C2SCc2ccc(Cl)cc2)cc1 | -2.83 |
| COc1ccccc1NC(=O)C1=C(C)Nc2nc(CCCO)nn2C1c1cccc(Br)c1 (stereo not shown) | 0.528 |
| COc1ccc(NC(=O)C(CC(=O)O)Cc2ccc(Cl)cc2)cc1 (stereo not shown) | 2.43 |
| COc1cccc2c1cc1c(=O)n(CC(=O)NC3CCC(C)CC3)nc(C)n12 (stereo not shown) | -3.47 |
| COc1ccccc1-c1cc(C(=O)Nc2c(C)nn(Cc3ccc(F)cc3)c2C)no1 | -3.36 |
| O=C(c1ccc(F)cc1)N(Cc1ccccc1)Cc1ccccc1 | -0.0217 |
| COc1ccc(Br)cc1C1C(C#N)=C(N)Oc2[nH]nc(-c3ccc4c(c3)OCO4)c21 (stereo not shown) | 3.99 |
| O=C(c1cccnc1Cl)N1CCN(c2ccccc2)CC1 | -5.26 |

| SMILES | % Inhibition @ 10 uM [%] |
| --- | --- |
| CCn1cc(CCCC(=O)NCc2ccc(C)cc2)c2ccccc21 | 0.658 |
| COc1ccc(C2(CC(=O)Nc3ccc(Br)cc3)C(=O)c3ccccc3C2=O)cc1 | -9.7 |
| Cc1cc2nc(C)n(CC(C)C)c2cc1C | 0.596 |
| COCCn1c(Cc2cccn2C)nnc1SCC(=O)Nc1nccs1 | -3.68 |
| Cc1ccc(S(=O)(=O)N(CC(=O)NCc2ccco2)c2ccc(Cl)c(C(F)(F)F)c2)cc1 | 1.86 |
| Cc1ccc(Sc2c(C(=O)NCc3cccnc3)[nH]c3ccccc23)cc1 | -9.13 |
| CCCCC(=O)Nc1scc(-c2ccc(OC)cc2)c1C(=O)O | -2.8 |
| COc1ccc(NC(=O)COc2ccc(C(=O)Nc3ccccc3OC)cc2)cc1 | 2.22 |
| Cc1ccc2cc(C(=O)O)[nH]c2c1 | -0.0309 |
| Oc1nc(SCCc2ccccc2)nc2ccccc12 | 1.13 |
| Cc1onc(-c2ccccc2Cl)c1C(=O)Nc1nn[nH]n1 | -1.1 |
| O=C(O)C1C2C=CC(O2)C1C(=O)Nc1cccc(C(F)(F)F)c1 (stereo not shown) | -8.28 |
| CN1C(=O)C(O)(CC(=O)c2cccs2)c2cc(Br)ccc21 (stereo not shown) | -4.68 |
| Cc1coc2cc3oc(=O)c(CCC(=O)O)c(C)c3cc12 | 0.558 |
| CCc1ccc(-c2cn3cc(C)ccc3n2)cc1 | -2.2 |
| CN(Cc1ccccc1)S(=O)(=O)c1nnc(NC(=O)c2ccco2)s1 | 0.813 |
| CCOc1ccc2c(=O)c(-c3ccccc3)c(C)oc2c1 | -4.57 |
| Cc1ccc(/C=C2/SC(N3CC(C)OC(C)C3)=NC2=O)o1 (stereo not shown) | 17.1 |
| O=C(NCCCO)/C(=C/c1ccccc1)NC(=O)c1ccc(Br)o1 | 5.67 |
| COc1cc(CN2CCN(Cc3ccc(SC)cc3)CC2)cc(OC)c1OC | 3.05 |
